Experimental data published in patent US20180015075A1, “METHODS AND COMPOSITIONS FOR TREATMENT OF VENOUS MALFORMATION” (Children's Hospital Medical Center, priority 2016, published 2018).
Where a name gives a salt, the structure may show the parent alone. Starred links: 1 amine or outer side, 2 acyl side, 3 side chain; linkers in the order of their positions; H or OH if unused. Positions of bridges follow the written chain, without caps; N, C: chain ends. Non-standard residues stand in square brackets, D forms with d. Residues, ends and D or L forms follow the SMILES beside them. Chains are numbered I, II in the order given. Actinocin(9to1) = Cc1c2oc3c(C)ccc(C(=O)[*:1])c3nc-2c(C(=O)[*:2])c(N)c1=O; NMeV = CN[C@H](C(=O)O)C(C)C; Sar = CNCC(=O)O

Test system: HUVEC (non-transfected)
Assay: cells
Conditions: Homo sapiens; for inhibition at 20 µM: read-out: Average proliferation Inhibition rate (%) HUVEC; for IC50: read-out: IC50 HUVEC

Clc1ccc(C(c2ccccc2Cl)C(Cl)Cl)cc1 (stereo not drawn) [Mitotane]
inhibition at 20 µM: 1.39%

CC(=O)O[C@H]1C(=O)[C@@]2(C)[C@H]([C@H](OC(=O)c3ccccc3)[C@]3(O)C[C@H](OC(=O)[C@H](O)[C@@H](NC(=O)c4ccccc4)c4ccccc4)C(C)=C1C3(C)C)[C@]1(OC(C)=O)CO[C@@H]1C[C@@H]2O [Paclitaxel]
inhibition at 20 µM: 48%

CC(=O)[C@]1(O)Cc2c(O)c3c(c(O)c2[C@@H](O[C@H]2C[C@H](N)[C@H](O)[C@H](C)O2)C1)C(=O)c1ccccc1C3=O [Idarubicin hydrochloride]
inhibition at 20 µM: 1.79%

Nc1nc(F)nc2c1ncn2[C@@H]1O[C@H](COP(=O)(O)O)[C@@H](O)[C@@H]1O [Fludarabine phosphate]
inhibition at 20 µM: 0.14%

COc1cc([C@@H]2c3cc4c(cc3[C@@H](O[C@@H]3O[C@@H]5CO[C@@H](c6cccs6)O[C@H]5[C@H](O)[C@H]3O)[C@H]3COC(=O)[C@H]23)OCO4)cc(OC)c1O [Teniposide]
inhibition at 20 µM: 60%

CCCCC(=O)OCC(=O)[C@]1(O)Cc2c(O)c3c(c(O)c2[C@@H](O[C@H]2C[C@H](NC(=O)C(F)(F)F)[C@H](O)[C@H](C)O2)C1)C(=O)c1c(OC)cccc1C3=O [Valrubicin]
inhibition at 20 µM: -4.92%

NCCCNCCSP(=O)(O)O [Amifostine]
inhibition at 20 µM: -8.91%

CC[C@]1(O)C[C@@H]2CN(CCc3c([nH]c4ccccc34)[C@@](C(=O)OC)(c3cc4c(cc3OC)N(C)[C@H]3[C@@](O)(C(=O)OC)[C@H](OC(C)=O)[C@]5(CC)C=CCN6CC[C@]43[C@@H]65)C2)C1 [Vinblastine sulfate]
inhibition at 20 µM: 53.8%

CO[C@H]1C(=O)[C@]2(C)[C@@H](OC)C[C@H]3OC[C@@]3(OC(C)=O)[C@H]2[C@H](OC(=O)c2ccccc2)[C@]2(O)C[C@H](OC(=O)[C@H](O)[C@@H](NC(=O)OC(C)(C)C)c3ccccc3)C(C)=C1C2(C)C [Cabazitaxel]
inhibition at 20 µM: 40.1%

Cc1nc(Nc2ncc(C(=O)Nc3c(C)cccc3Cl)s2)cc(N2CCN(CCO)CC2)n1 [Dasatinib, N-(2-Chloro-6-methylphenyl)-2-[[6-[4-(2-hydroxyethyl)-1-piperazinyl]-2-methyl-4-pyrimidinyl]amino]-5-thiazolecarboxamide]
inhibition at 20 µM: 18.6%

CN(N=O)C(=O)N[C@@H](C=O)[C@@H](O)[C@H](O)[C@H](O)CO [Streptozocin]
inhibition at 20 µM: -5.23%

Nc1nc(Cl)nc2c1ncn2[C@H]1C[C@H](O)[C@@H](CO)O1 [Cladribine]
inhibition at 20 µM: 57%

O=C1c2c(O)ccc(O)c2C(=O)c2c(NCCNCCO)ccc(NCCNCCO)c21 [Mitoxantrone]
inhibition at 20 µM: 80.3%

NCC(=O)CCC(=O)O [Aminolevulinic acid hydrochloride]
inhibition at 20 µM: 3.76%

CC(C)C[C@H](NC(=O)[C@H](CCc1ccccc1)NC(=O)CN1CCOCC1)C(=O)N[C@@H](Cc1ccccc1)C(=O)N[C@@H](CC(C)C)C(=O)[C@@]1(C)CO1 [Carfilzomib]
inhibition at 20 µM: 69.7%

CN(C)c1nc(N(C)C)nc(N(C)C)n1 [Altretamine]
inhibition at 20 µM: 2.67%

O=C1CCC(N2C(=O)c3ccccc3C2=O)C(=O)N1 (stereo not drawn) [Thalidomide]
inhibition at 20 µM: -1.6%

C[C@]12CC[C@H](O)CC1=CC[C@@H]1[C@@H]2CC[C@]2(C)C(c3cccnc3)=CC[C@@H]12 [Abiraterone]
inhibition at 20 µM: -6.5%

CN(C)C/C=C/C(=O)Nc1cc2c(Nc3ccc(F)c(Cl)c3)ncnc2cc1O[C@H]1CCOC1 [Afatinib]
inhibition at 20 µM: 20%

CC(=O)Nc1cccc(-n2c(=O)n(C3CC3)c(=O)c3c(Nc4ccc(I)cc4F)n(C)c(=O)c(C)c32)c1 [Trametinib]
inhibition at 20 µM: 34.7%

C/C=C1\NC(=O)[C@H]2CSSCC/C=C/[C@H](CC(=O)N[C@H](C(C)C)C(=O)N2)OC(=O)[C@H](C(C)C)NC1=O [Romidepsin]
inhibition at 20 µM: 50.9%

CS(=O)(=O)c1ccc(C(=O)Nc2ccc(Cl)c(-c3ccccn3)c2)c(Cl)c1 [Vismodegib]
inhibition at 20 µM: -1.48%

Nc1ccn([C@@H]2O[C@H](CO)[C@@H](O)C2(F)F)c(=O)n1 [Gemcitabine hydrochloride]
inhibition at 20 µM: 50.7%

CCCCCOC(=O)Nc1nc(=O)n([C@@H]2O[C@H](C)[C@@H](O)[C@H]2O)cc1F [Capecitabine]
inhibition at 20 µM: 0.47%

O=c1[nH]cc(F)c(=O)[nH]1 [Fluorouracil]
inhibition at 20 µM: 20.5%

CO[C@@]12[C@H](COC(N)=O)C3=C(C(=O)C(C)=C(N)C3=O)N1C[C@@H]1N[C@@H]12 [Mitomycin]
inhibition at 20 µM: 69.5%

O=NN(CCCl)C(=O)NC1CCCCC1 [Lomustine]
inhibition at 20 µM: 12.6%

CC(=O)O[C@]1(C(C)=O)CC[C@H]2[C@@H]3C=C(C)C4=CC(=O)CC[C@]4(C)[C@H]3CC[C@@]21C [Megestrol-acetate]
inhibition at 20 µM: 1.49%

CC/C(=C(\c1ccccc1)c1ccc(OCCN(C)C)cc1)c1ccccc1 [Tamoxifen citrate]
inhibition at 20 µM: 24.3%

Nc1nc2nc[nH]c2c(=S)[nH]1 [Thioguanine]
inhibition at 20 µM: 13.8%

CC[C@@]1(O)C(=O)OCc2c1cc1n(c2=O)Cc2cc3c(CN(C)C)c(O)ccc3nc2-1 [Topotecan hydrochloride]
inhibition at 20 µM: 77.5%

CC[C@H](Nc1ncnc2[nH]cnc12)c1nc2cccc(F)c2c(=O)n1-c1ccccc1 [Idelalisib]
inhibition at 20 µM: 23.8%

CCCS(=O)(=O)Nc1ccc(F)c(C(=O)c2c[nH]c3ncc(-c4ccc(Cl)cc4)cc23)c1F [Vemurafenib]
inhibition at 20 µM: -8.56%

OC[C@H]1O[C@@H](n2cnc3c2NC=NC[C@H]3O)C[C@@H]1O [Pentostatin]
inhibition at 20 µM: -3.07%

COc1nc(N)nc2c1ncn2[C@@H]1O[C@H](CO)[C@@H](O)[C@@H]1O [Nelarabine]
inhibition at 20 µM: 4.75%

COc1cccc2c1C(=O)c1c(O)c3c(c(O)c1C2=O)C[C@@](O)(C(=O)CO)C[C@@H]3O[C@H]1C[C@H](N)[C@@H](O)[C@H](C)O1 [Epirubicin hydrochloride]
inhibition at 20 µM: 74.4%

CN(C)/N=N/c1[nH]cnc1C(N)=O [Dacarbazine]
inhibition at 20 µM: 1.88%

O=C(/C=C/c1cccc(S(=O)(=O)Nc2ccccc2)c1)NO [Belinostat]
inhibition at 20 µM: 79.4%

COC(=O)C[C@](O)(CCCC(C)(C)O)C(=O)O[C@@H]1C(OC)=C[C@]23CCCN2CCc2cc4c(cc2[C@H]13)OCO4 [Omacetaxine-mepesuccinate]
inhibition at 20 µM: 79.8%

O=C(c1cc(Cc2n[nH]c(=O)c3ccccc23)ccc1F)N1CCN(C(=O)C2CC2)CC1 [Olaparib]
inhibition at 20 µM: 16.8%

O=C(CCBr)N1CCN(C(=O)CCBr)CC1 [Pipobroman]
inhibition at 20 µM: 15.8%

COc1cc2nccc(Oc3ccc(NC(=O)C4(C(=O)Nc5ccc(F)cc5)CC4)cc3)c2cc1OC [Cabozantinib]
inhibition at 20 µM: 32%

Nc1ncn([C@@H]2O[C@H](CO)[C@@H](O)[C@H]2O)c(=O)n1 [Azacitidine]
inhibition at 20 µM: 44.3%

CCC1=C[C@@H]2CN(C1)Cc1c([nH]c3ccccc13)[C@@](C(=O)OC)(c1cc3c(cc1OC)N(C)[C@H]1[C@@](O)(C(=O)OC)[C@H](OC(C)=O)[C@]4(CC)C=CCN5CC[C@]31[C@@H]54)C2 [Vinorelbine tartrate]
inhibition at 20 µM: 51.6%

O=C(c1ccc(OCCN2CCCCC2)cc1)c1c(-c2ccc(O)cc2)sc2cc(O)ccc12 [Raloxifene]
inhibition at 20 µM: 9.41%

Cc1c2oc3c(C)ccc(C(=O)N[C@@H]4C(=O)N[C@H](C(C)C)C(=O)N5CCC[C@H]5C(=O)N(C)CC(=O)N(C)[C@@H](C(C)C)C(=O)O[C@@H]4C)c3nc-2c(C(=O)N[C@@H]2C(=O)N[C@H](C(C)C)C(=O)N3CCC[C@H]3C(=O)N(C)CC(=O)N(C)[C@@H](C(C)C)C(=O)O[C@@H]2C)c(N)c1=O [Dactinomycin] (I: T[dV]P[Sar][NMeV] / II: T[dV]P[Sar][NMeV]; ester I:1-I:C, II:1-II:C; linker I:N-II:N via Actinocin(9to1))
inhibition at 20 µM: 67%

COc1cccc2c1C(=O)c1c(O)c3c(c(O)c1C2=O)C[C@@](O)(C(=O)CO)C[C@@H]3O[C@H]1C[C@H](N)[C@H](O)[C@H](C)O1 [Doxorubicin hydrochloride]
inhibition at 20 µM: 73.2%

Cc1cc(Nc2ncc(Cl)c(Nc3ccccc3S(=O)(=O)C(C)C)n2)c(OC(C)C)cc1C1CCNCC1 [Ceritinib]
inhibition at 20 µM: 12.4%
IC50: 8.13 ± 2.65 µM

CNC(=O)c1cc(Oc2ccc(NC(=O)Nc3ccc(Cl)c(C(F)(F)F)c3)cc2)ccn1 [Sorafenib]
inhibition at 20 µM: 13.2%
IC50: 6.84 ± 2.23 µM

C1CN1c1nc(N2CC2)nc(N2CC2)n1 [Triethylenemelamine]
inhibition at 20 µM: 46.1%

CC(C)C[C@H](NC(=O)[C@H](Cc1ccccc1)NC(=O)c1cnccn1)B(O)O [Bortezomib]
inhibition at 20 µM: 81%

Nc1cccc2c1CN(C1CCC(=O)NC1=O)C2=O (stereo not drawn) [Lenalidomide]
inhibition at 20 µM: 1.27%

CC(C)Cn1cnc2c(N)nc3ccccc3c21 [Imiquimod]
inhibition at 20 µM: -0.75%

O=P1(NCCCl)OCCCN1CCCl (stereo not drawn) [Ifosfamide]
inhibition at 20 µM: -3.81%

Oc1ncnc2[nH]ncc12 [Allopurinol]
inhibition at 20 µM: 1.79%

C/C(=C\c1csc(C)n1)[C@@H]1C[C@@H]2O[C@]2(C)CCC[C@H](C)[C@H](O)[C@@H](C)C(=O)C(C)(C)[C@@H](O)CC(=O)N1 [Ixabepilone]
inhibition at 20 µM: 74.3%

C[C@]12CC[C@@H]3c4ccc(OC(=O)N(CCCl)CCCl)cc4CC[C@H]3[C@@H]1CC[C@@H]2OP(=O)(O)O [Estramustine phosphate sodium]
inhibition at 20 µM: -4.58%

N#Cc1ccc(C(c2ccc(C#N)cc2)n2cncn2)cc1 [Letrozole]
inhibition at 20 µM: 4.31%

C[C@]12CC[C@@H]3c4ccc(O)cc4C[C@@H](CCCCCCCCC[S+]([O-])CCCC(F)(F)C(F)(F)F)[C@H]3[C@@H]1CC[C@@H]2O (stereo partly drawn) [Fulvestrant]
inhibition at 20 µM: -4.95%

O=NN(CCCl)C(=O)NCCCl [Carmustine]
inhibition at 20 µM: 11.2%

C[C@@H](Oc1cc(-c2cnn(C3CCNCC3)c2)cnc1N)c1c(Cl)ccc(F)c1Cl [Crizotinib]
inhibition at 20 µM: 63.8%

CCN(CC)CCNC(=O)c1c(C)[nH]c(/C=C2\C(=O)Nc3ccc(F)cc32)c1C [Sunitinib]
inhibition at 20 µM: 34.9%

CS(=O)(=O)CCNCc1ccc(-c2ccc3ncnc(Nc4ccc(OCc5cccc(F)c5)c(Cl)c4)c3c2)o1 [Lapatinib]
inhibition at 20 µM: -2.48%

C#Cc1cccc(Nc2ncnc3cc(OCCOC)c(OCCOC)cc23)c1 [Erlotinib hydrochloride]
inhibition at 20 µM: 35.3%
